Experimental findings from PMC2800207 (Nucleic Acids Research, 2009) are described below.

The target in the assay is NusE (GST cleaved off) (E. coli). Briefly: fluorescence polarisation. In general terms: Fluorescence polarisation rises when a labelled molecule tumbles more slowly, as on binding a larger partner.

B1: NusB^D118A (natural protein)
chain: not shown
As to B1, the binding result was “binds”.

B2: NusB^D118K (natural protein)
chain: not shown
Turning to B2, the binding result was “binds”.
